In article PMC11849630, “Tau destabilization in a familial deletion mutant K280 accelerates its fibrillization and enhances the seeding effect” (The Journal of Biological Chemistry, 2025):

Biological target: T1, recombinant full-length human wild-type tau (tau 441, 2N4R), without additional tags (human, UniProt P10636-8 1-441)
T1 construct: microtubule-associated protein tau, human, longest isoform (tau 441, 2N4R, 441 amino acids), full length; subcloned from pRK5-EGFP-tau (Addgene) into pET-29b(+) by NdeI and EcoRI; Used as freshly prepared monomer (AUC, ThT assays) and, after 4 d with heparin and sonication, as preformed fibril seeds; also called WT tau; WT; source: E. coli BL21 (DE3), pET-29b, purified (boiling, SP Sepharose HP, …)
Experiment: ThT seeding assay + TEM + FTIR; 5 μM tau monomer in 20 mM Tris buffer with 5% v/v sonicated preformed fibril seeds, 10 μM ThT, heparin at tau-to-heparin 4:1, 25 °C; monomer is the binder, seeds the target
Conditions: both partners purified

B1: recombinant full-length human tau ΔK280 mutant (tau 441 with deletion of lysine 280), without additional tags (natural protein)
chain: not shown
notes: microtubule-associated protein tau, human, longest isoform (tau 441, 2N4R), full length, familial deletion of K280 made by site-directed mutagenesis; Used as freshly prepared monomer and as sonicated preformed fibril seeds; also called ΔK280 seeds; mutant seeds; source: E. coli BL21 (DE3), pET-29b, purified (boiling, SP Sepharose HP, Heparin HP)
binding result: binds
